Structures are written as SMILES. About 540 (0.36%) of roughly 150,000 compounds showed an effect of 50% or more. The list shows a part of the results.

This assay deals with Plasmodium falciparum. Kind of assay: Primary screen in NF54 nanoGlo assay, in single point, at 2uM, 72h; a lower Z score goes with more inhibition. Format: functional, Erythrocyte. Particulars: timepoint 72 hour.
One may read the % Inhibition as the relative decrease from the control value, in per cent. On to `C#CCNC(=O)[C@H](C)N(C)Cc1ccc(Br)o1`, for which the “% Inhibition” value was found to be 0% and the Z score was determined as 0.01.
For `Nc1nc(C(F)(F)F)nc(C(F)(F)F)n1` the same measures were 0% and -0.07.
For `O=C(c1cccnc1)N(Cc1ccco1)C1CC1`, the “% Inhibition” value is recorded as -5% and the Z score is listed as 0.45.
Regarding `COCCOCCNc1cc(NC(C)=O)ccc1Cl`, the “% Inhibition” value was -13% and the Z score is 2.02.
Consider `COc1cc(C(=O)Nc2cccc(-c3nc(C)cc(=O)[nH]3)c2)ccc1OCc1cscn1`, for which the “% Inhibition” value is reported as -2% and the Z score was found to be 0.29.
For the compound `CC(=O)N[C@H]1CCN(C(=O)c2cnn(C3CC3)c2)C1`, the “% Inhibition” value is reported as -4% and the Z score was determined as 0.49.
The matching figures for `CN(C)CCN1CCN(c2ccc(Cl)cn2)C[C@@H](O)C1`: -15% and 2.85.
For the compound `CCCCc1nc(-c2nccn2[C@H]2COC[C@@H]2OCC)c[nH]1`, the “% Inhibition” value is given as -2% and the Z score is reported as 0.31.
For `O=C(c1cc2c(F)cccc2s1)N1CCc2ccccc2C1` the same measures were 0% and 0.08.
Consider `CCOc1ccc(S(=O)(=O)N2CCC(c3c(C)n(Cc4ccc(Cl)cc4)c4ccccc34)CC2)cc1`, for which the “% Inhibition” value is reported as 13% and the Z score is -1.82.
With `Cc1cc(NC(=O)NCC2(NC(=O)OC(C)(C)C)CCCCCC2)no1`, the “% Inhibition” value is on record as 2% and the Z score is -0.27.
`O=C1[C@@H]2Cc3c([nH]c4ccccc34)C(c3ccc(Cl)cc3)N2C(=O)CN1CCc1ccc(F)cc1` (stereo partly specified): the “% Inhibition” value came to 10% and the Z score is -1.48.
For `O=C(CN1CCC[C@H]1c1ccc(F)c(F)c1)N1CCC1`, the “% Inhibition” value was -10% and the Z score is 1.39.
For `CCOC[C@@H](O)CNc1ncccc1F` the same measures were -1% and 0.19.
Take `CC(C)n1c(=O)n(CC(=O)NC2CCCC2)c2cc(S(=O)(=O)N3CCCC3)ccc21`: the “% Inhibition” value was found to be 12% and the Z score was -1.41.
Turning to `O=C(NCC[C@H]1CCOC1)c1cncc(Cl)c1`, the “% Inhibition” value is 2% and the Z score is on record as -0.32.
Consider `O=C(Cc1ccccc1)Nc1ccc(N2CCN(Cc3ccncc3)CC2)nc1`, for which the “% Inhibition” value is recorded as -18% and the Z score is given as 1.75.
The matching figures for `CC(C)N1C[C@@]2(CCCN(C(=O)c3cccn4cnnc34)C2)CCC1=O`: -7% and 1.21.
For the compound `C[C@H](C(=O)Nc1c(F)cccc1F)C1CCN(C(=O)Nc2ccc(Cl)cc2)CC1`, the “% Inhibition” value is -11% and the Z score amounted to 2.04.
With `CC(C)C(=O)N1CCC(F)(F)[C@@H](C)C1`, the “% Inhibition” value is on record as 1% and the Z score is given as -0.25.
The matching figures for `CC(=O)N1C[C@H](NC(=O)C2(C)CCCC2)[C@@H](C2CC2)C1`: -4% and 0.73.
As to `CCO[C@H]1CCN(C(=O)Nc2ccc(C(=O)NC)nn2)C1`, the “% Inhibition” value is recorded as -1% and the Z score was 0.2.
For `Cc1cc(C)c2[nH]c(C(=O)N(C)[C@H](c3ccccn3)C3CC3)c(C)c2c1` the same measures were 3% and -0.48.

For the origin of these results see ChEMBL document CHEMBL4888484, “Replenishing the malaria drug discovery pipeline: Screening and hit evaluation of the MMV Hit Generation Library 1 (HGL1) against asexual blood stage Plasmodium falciparum ,using a nano luciferase reporter read-out” (2022).
